{"source": "PubChem BioAssay AID588591", "about": "(National Center for Advancing Translational Sciences (NCATS), 2011)", "note": "The campaign covered roughly 390,000 compounds. About 4,700 (1.2%) were called active. This list was built around the results that the source calls inconclusive (neither active nor inactive); the mix of calls is not that of the screen. Calls come from the whole dose curve; as a rule, active = well fitted inhibition curve with a large enough effect; inconclusive = small, poorly fitted or top-dose-only effect, or another doubt; inactive = no such curve, though single readings can be large or run the other way. Where the call is inconclusive, the potency comes from a doubtful curve fit. Potency is the fitted concentration of half-maximal effect; tags give direction and shape of the fitted curve.", "data": [{"biological_target": "DNA polymerase eta (Homo sapiens) (UniProt Q9Y253)", "sequence (Q9Y253 whole entry, looked up)": "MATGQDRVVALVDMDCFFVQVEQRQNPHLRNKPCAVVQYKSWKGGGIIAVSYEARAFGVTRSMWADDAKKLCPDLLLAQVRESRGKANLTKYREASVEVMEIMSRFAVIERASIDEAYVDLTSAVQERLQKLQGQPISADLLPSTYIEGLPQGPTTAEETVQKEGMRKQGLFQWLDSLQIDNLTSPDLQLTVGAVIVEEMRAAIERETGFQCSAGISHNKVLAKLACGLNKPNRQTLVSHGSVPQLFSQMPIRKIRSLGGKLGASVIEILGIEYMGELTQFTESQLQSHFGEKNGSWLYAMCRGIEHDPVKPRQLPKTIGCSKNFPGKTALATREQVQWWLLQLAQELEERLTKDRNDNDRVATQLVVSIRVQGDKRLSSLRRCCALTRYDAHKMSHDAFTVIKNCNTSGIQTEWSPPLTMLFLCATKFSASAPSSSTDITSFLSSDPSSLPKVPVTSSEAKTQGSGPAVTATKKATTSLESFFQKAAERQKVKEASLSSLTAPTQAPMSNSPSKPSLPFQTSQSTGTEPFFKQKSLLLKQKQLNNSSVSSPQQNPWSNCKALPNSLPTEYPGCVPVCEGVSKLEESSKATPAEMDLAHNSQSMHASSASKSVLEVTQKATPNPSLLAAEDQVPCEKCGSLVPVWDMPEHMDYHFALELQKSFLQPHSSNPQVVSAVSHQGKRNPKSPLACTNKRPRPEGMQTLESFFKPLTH", "assay": "qHTS for Inhibitors of Polymerase Eta", "conditions": "recombinant Pol eta, fluorescent DNA replication assay; series mostly up to 114 µM", "how_it_was_run": "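Pol eta at 10 nM preincubated with compounds 15 min at room temperature; reaction started with fluorescent substrate (50 nM final) and read kinetically at 0 and 10 min.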", "values": [{"smiles": "CSc1nc2[nH]c(=O)n(O)c(=O)c2n1Cc1ccccc1", "Potency": "inconclusive: 50.1 µM [inhibitor, partial curve]"}, {"smiles": "COc1cc(N=Nc2ccc(C(=O)N(C)C)cc2)c(C)cc1N", "Potency": "inconclusive: 56.2 µM [inhibitor, partial curve, poor fit]"}, {"smiles": "O=C1Nc2ccc(S(=O)(=O)NCc3ccccn3)c3cccc1c23", "Potency": "active: 20 µM"}, {"smiles": "C=CCOc1cccc(C2/C(=C(/O)c3ccc4c(c3)CC(C)O4)C(=O)C(=O)N2CCN2CCOCC2)c1", "note": "(stereo unspecified)", "Potency": "inactive"}, {"smiles": "Cc1cc(SCC(=O)c2ccc(O)c(O)c2)nc2ccccc12", "Potency": "active: 11.2 µM"}, {"smiles": "Nc1ccc2c(c1Cl)C(=O)c1ccc(N)c(Cl)c1C2=O", "Potency": "active: 8.91 µM"}, {"smiles": "C[C@H]1CN(c2ccccc2)C(=O)[C@@H]1CC(=O)Nc1ccccc1", "Potency": "inconclusive: 0.282 µM [inhibitor, partial curve, poor fit]"}, {"smiles": "COc1ccc(N2CCN(C(=O)CC34CC5CC(CC(C5)C3)C4)CC2)c([N+](=O)[O-])c1", "Potency": "inconclusive: 79.4 µM [inhibitor, partial curve, poor fit]"}, {"smiles": "CC(C)(C)c1ccc(C(=O)N/C(=C\\c2cccc([N+](=O)[O-])c2)C(=O)Nc2cccc(C(=O)O)c2)cc1", "Potency": "active: 22.4 µM"}, {"smiles": "CC1=C(c2ccc(C)cc2)S(=O)(=O)NC1=NCCCN1CCN(c2ccccc2F)CC1", "Potency": "inactive"}, {"smiles": "COCCn1c(N)c(C(=O)OCc2ccccc2)c2nc3ccccc3nc21", "Potency": "inactive"}, {"smiles": "Cc1cc(C(=O)OCC(=O)NCc2ccco2)c(C)n1-c1ccccc1", "Potency": "active: 14.1 µM"}, {"smiles": "Cc1snc(SCC(=O)N/N=C(\\N)COc2cccc(C(F)(F)F)c2)c1C#N", "Potency": "inconclusive: 39.8 µM [inhibitor, partial curve, poor fit]"}, {"smiles": "O=C(NCc1ccco1)c1ccc(=O)[nH]n1", "Potency": "inconclusive: 39.8 µM [inhibitor, single point]"}, {"smiles": "c1coc(CNc2nc(-c3cccs3)cs2)c1", "Potency": "inactive"}, {"smiles": "COc1cc(C(=O)OCC(=O)N2CCCC2=O)cc(OC)c1C", "Potency": "active: 31.6 µM"}, {"smiles": "CCOc1ccccc1CN(CCc1ccc2c(c1)OCO2)Cc1ccccn1", "Potency": "inconclusive: 17.8 µM [inhibitor, partial curve, poor fit]"}, {"smiles": "Cc1ccc(NC(=O)CSc2ncc(S(=O)(=O)c3ccc(C(C)C)cc3)c(=O)[nH]2)cc1C", "Potency": "inconclusive: 89.1 µM [inhibitor, single point]"}, {"smiles": "COc1cc(C(=O)O[C@H]2C/C(C)=C/CC[C@]3(C)O[C@@H]3C(O)C2C(C)C)cc(OC)c1OC", "note": "(stereo partly specified)", "Potency": "inconclusive: 79.4 µM [inhibitor, partial curve, poor fit]"}, {"smiles": "Cn1c(=O)c2c(n3c4ccccc4nc13)NC(=O)CC2c1cccc(F)c1", "note": "(stereo unspecified)", "Potency": "inactive"}, {"smiles": "CC(/C=N/n1c(-c2ccncc2)n[nH]c1=S)=C\\c1ccco1", "Potency": "inconclusive: 20 µM [inhibitor, full curve]"}, {"smiles": "CCOC(=O)C1=c2s/c(=C\\c3ccncc3)c(=O)n2C(N)=C(C(=O)OC)C1c1ccncc1", "note": "(stereo unspecified)", "Potency": "inactive"}, {"smiles": "Cc1ccc(C2=NOC(=O)/C2=C\\c2ccc(C)o2)cc1", "Potency": "active: 79.4 µM"}, {"smiles": "Cc1nc2cc(C(=O)OCC(=O)Nc3ccc(C#N)cc3)ccc2n1-c1ccccc1", "Potency": "inconclusive: 10 µM [inhibitor, partial curve, poor fit]"}, {"smiles": "CCOc1ccc(C2=Nn3c(nnc3-c3ccc(OC)cc3)SC2)cc1", "Potency": "inconclusive: 35.5 µM [inhibitor, single point]"}, {"smiles": "Cc1ccc(CSc2nnc(-c3cccc(S(=O)(=O)N4CCOCC4)c3)n2CC(C)C)cc1", "Potency": "inconclusive: 70.8 µM [inhibitor, partial curve, poor fit]"}, {"smiles": "NS(=O)(=O)c1ccc(Nc2ccc3cc(S(=O)(=O)N4CCCCC4)ccc3n2)cc1", "Potency": "inconclusive: 3.16 µM [inhibitor, partial curve, poor fit]"}, {"smiles": "Cc1ccc2nc(-c3ccncc3)cc(C(=O)Nc3ccc(OC(F)F)cc3)c2c1", "Potency": "inconclusive: 31.6 µM [inhibitor, full curve]"}, {"smiles": "O=C(O)Cn1c(CCS(=O)(=O)c2ccc(Br)cc2)nc2ccccc21", "Potency": "active: 20 µM"}, {"smiles": "CCSc1cc(N2CCOCC2)nc(-c2ccccc2)n1", "Potency": "inactive"}, {"smiles": "COc1ccc(-n2nnc3c(SCC(=O)NCC4CCCO4)ncnc32)cc1", "note": "(stereo unspecified)", "Potency": "inconclusive: 100 µM [inhibitor, partial curve, poor fit]"}, {"smiles": "COc1cc2c(O)cc(C(=O)O)c(-c3cc(OC)c(OC)c(OC)c3)c2cc1OC", "Potency": "active: 89.1 µM"}, {"smiles": "Cc1cc2c(cc1S(=O)(=O)N1CCN(c3cccc(C)c3C)CC1)OCC(=O)N2", "Potency": "inconclusive: 100 µM [inhibitor, partial curve, poor fit]"}, {"smiles": "COC(=O)C1=C(O)/C(=C\\c2ccc(CNC(=O)C(=O)Nc3ccc(C)cc3)o2)N=C1C", "Potency": "inconclusive: 28.2 µM [inhibitor, partial curve, poor fit]"}, {"smiles": "COCCN(C(=S)Nc1c(C)cccc1C)C(C)c1cccnc1", "note": "(stereo unspecified)", "Potency": "inconclusive: 5.01 µM [inhibitor, partial curve, poor fit]"}, {"smiles": "Cc1nnc2ccc(-c3ccc(NS(=O)(=O)c4ccccc4)cc3)nn12", "Potency": "inconclusive: 39.8 µM [inhibitor, partial curve, poor fit]"}, {"smiles": "COc1cccc(CNC(=O)Cc2csc(NC(=O)Nc3ccccc3OC)n2)c1", "Potency": "inconclusive: 2.82 µM [inhibitor, partial curve, poor fit]"}, {"smiles": "CCC1CN(C(=O)Nc2cccc3c2CCCC3)c2cc(Cl)ccc2O1", "note": "(stereo unspecified)", "Potency": "inactive"}, {"smiles": "O=C(Nc1cc(C(F)(F)F)ccc1-n1cncn1)c1ccc([N+](=O)[O-])o1", "Potency": "inconclusive: 31.6 µM [inhibitor, partial curve, poor fit]"}, {"smiles": "O=C1N=c2ccc([N+](=O)[O-])cc2=C1c1sc(=O)[nH]c1O", "Potency": "inactive"}, {"smiles": "C=CCn1c(SCC(=O)NCc2ccco2)nc2sc3c(c2c1=O)CCC3", "Potency": "inconclusive: 28.2 µM [inhibitor, partial curve, poor fit]"}, {"smiles": "Cc1ccc(NC(=O)CCC(=O)c2cccs2)nc1", "Potency": "inconclusive: 28.2 µM [inhibitor, partial curve, poor fit]"}, {"smiles": "O=C(NCc1ccco1)c1cc(-c2cccs2)nc2ccccc12", "Potency": "inconclusive: 35.5 µM [inhibitor, partial curve, poor fit]"}, {"smiles": "O=C(Nc1nnc(C2CCCCC2)s1)C1CC(=O)N(c2ccccc2)C1", "note": "(stereo unspecified)", "Potency": "inactive"}, {"smiles": "COc1ccc(CC(=O)Nc2ccc(-c3nc4cc(C)ccc4o3)c(O)c2)cc1OC", "Potency": "inconclusive: 3.55 µM [inhibitor, full curve]"}, {"smiles": "COc1cccc(/C=c2\\sc3nc(-c4cccs4)nn3c2=O)c1OC", "Potency": "inconclusive: 14.1 µM [inhibitor, full curve, poor fit]"}, {"smiles": "CCCN1CCC(Oc2cccc(C(=O)NCCc3ccccc3)c2)CC1", "Potency": "inactive"}, {"smiles": "O=C(CCC1CCCN(C(=O)c2ccc3cc[nH]c3c2)C1)N1CCN(c2ccccn2)CC1", "note": "(stereo unspecified)", "Potency": "inactive"}, {"smiles": "Cc1ccc(CNC(=O)CCc2c(C)c3ccc(O)c(C)c3oc2=O)cc1", "Potency": "inactive"}, {"smiles": "COc1ccc(C(=O)COC(=O)CCNS(=O)(=O)c2ccccc2)c(OC)c1", "Potency": "inconclusive: 14.1 µM [inhibitor, full curve, poor fit]"}, {"smiles": "C=CCSc1nc(=O)n2ccc(C)cc2n1", "Potency": "inconclusive: 79.4 µM [inhibitor, partial curve]"}, {"smiles": "O=C(CSC1=NC(=O)C(c2ccccc2)C(=O)N1)Nc1ccccc1[N+](=O)[O-]", "note": "(stereo unspecified)", "Potency": "active: 50.1 µM"}, {"smiles": "CC(C)(C)C1CCC(=NNC(=O)C(=O)NC2CCCCC2)CC1", "note": "(stereo unspecified)", "Potency": "inactive"}, {"smiles": "O=C(CSc1nc2ccc(NC(=O)c3ccccc3C(=O)O)cc2s1)Nc1ccc(F)c([N+](=O)[O-])c1", "Potency": "inconclusive: 56.2 µM [inhibitor, partial curve, poor fit]"}, {"smiles": "CCOC(=O)c1c(C)[nH]c(C)c1C(=O)CSc1nc2ccccc2n1CC", "Potency": "inconclusive: 35.5 µM [inhibitor, partial curve, poor fit]"}, {"smiles": "CS(=O)(=O)N(CC(=O)NCc1ccco1)Cc1ccc(Cl)cc1", "Potency": "inconclusive: 39.8 µM [inhibitor, partial curve, poor fit]"}, {"smiles": "O=c1c2c3c(sc2n2cnnc2n1Cc1ccccc1)CN(Cc1ccccc1)CC3", "Potency": "inconclusive: 17.8 µM [inhibitor, partial curve]"}, {"smiles": "Cc1nc(Oc2ccccc2C)c2oc3ccccc3c2n1", "Potency": "inactive"}, {"smiles": "CN(C(=O)COC(=O)c1cc([N+](=O)[O-])ccc1N1CCOCC1)C1CCCCC1", "Potency": "inactive"}, {"smiles": "COc1ccc2oc(=O)c(-c3csc(Nc4cccc(O)c4)n3)cc2c1", "Potency": "inconclusive: 12.6 µM [inhibitor, full curve, poor fit]"}, {"smiles": "CCN(C(=O)C1CCC(CNS(=O)(=O)c2cccc3nsnc23)CC1)c1cccc(C)c1", "note": "(stereo unspecified)", "Potency": "inconclusive: 0.447 µM [inhibitor, partial curve, poor fit]"}, {"smiles": "Cc1nc(C)c(-c2csc(Nc3ccc(O)c(C(=O)O)c3)n2)s1", "Potency": "inconclusive: 11.2 µM [inhibitor, full curve, poor fit]"}, {"smiles": "CCN(CC)S(=O)(=O)c1cccc(C(=O)/C=C2/N(C)c3ccccc3C2(C)C)c1", "Potency": "inconclusive: 100 µM [inhibitor, partial curve, poor fit]"}, {"smiles": "Cc1ccc(-c2c(C#N)c(N)n(-c3ccc(C)cc3)c(=O)c2C#N)cc1", "Potency": "inconclusive: 39.8 µM [inhibitor, single point]"}, {"smiles": "CCCCn1c(SCC(=O)c2ccccc2)nc2ccsc2c1=O", "Potency": "inactive"}, {"smiles": "CC(=O)c1cccc(S(=O)(=O)N2CCC(C(=O)NC3CCCC3)CC2)c1", "Potency": "inconclusive: 39.8 µM [inhibitor, single point]"}]}]}
